# Where “and” joins values, the source holds several entries; their conditions need not be identical. Equal values may be shown once. Out of some 110,000 compounds screened, about 230 (0.21%) showed an effect of 50% or more. The list shows a part of the results.
# Target: DPAP1 (Plasmodium falciparum, UniProt Q8IIJ9)
# Test: primary screen, percent inhibition; read by cleavage of a fluorogenic dipeptide substrate; higher = more effect of the substance
# Parameters: species or system P. falciparum D10 trophozoite lysates; single well
# 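Note: 30 min substrate incubation versus DMSO and 10 µM JCP410 controls.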
# DPAP1, sequence (Q8IIJ9 whole entry, looked up): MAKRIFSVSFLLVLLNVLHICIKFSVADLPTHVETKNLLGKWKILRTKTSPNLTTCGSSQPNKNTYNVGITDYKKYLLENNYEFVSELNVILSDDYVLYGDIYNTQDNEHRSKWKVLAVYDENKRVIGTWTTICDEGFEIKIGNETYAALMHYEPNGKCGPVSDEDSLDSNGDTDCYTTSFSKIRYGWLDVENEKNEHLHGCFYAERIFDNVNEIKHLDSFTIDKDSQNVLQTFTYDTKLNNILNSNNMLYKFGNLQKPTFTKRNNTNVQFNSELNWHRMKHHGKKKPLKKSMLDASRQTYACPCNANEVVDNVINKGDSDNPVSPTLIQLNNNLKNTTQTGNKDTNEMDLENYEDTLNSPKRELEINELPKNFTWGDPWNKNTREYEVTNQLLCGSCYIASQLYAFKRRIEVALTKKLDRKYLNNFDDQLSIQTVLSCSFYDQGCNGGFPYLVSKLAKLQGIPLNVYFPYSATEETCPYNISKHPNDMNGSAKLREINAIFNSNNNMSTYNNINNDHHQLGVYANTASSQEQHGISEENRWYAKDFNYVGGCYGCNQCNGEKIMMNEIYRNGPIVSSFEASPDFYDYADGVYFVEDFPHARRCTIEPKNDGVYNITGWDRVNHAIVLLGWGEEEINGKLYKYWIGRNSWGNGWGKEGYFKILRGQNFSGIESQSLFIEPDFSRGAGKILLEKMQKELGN
row,SMILES,% Inhibition @ 10 uM
1,CCOc1ccc(CNC(=O)C2CCCN(c3nnc(C)c4c(C)n(-c5ccc(C)cc5)nc34)C2)cc1 (stereo not drawn),-0.518%
2,Cc1ccc2nc3c(cc(C#N)c(=O)n3-c3nnc(SCc4ccc(Cl)cc4)s3)c(=O)n2c1,-0.551%
3,CC(CN(C)CC(O)c1ccccc1)c1ccccc1 (stereo not drawn),-1.75%
4,COc1ccc(CCNC(=O)c2c(O)nc3c(c2O)CCCC3)cc1OC,-2.17%
5,Cn1ncc(Cl)c1C(=O)N1CCc2ccccc2C1,0.866%
6,CC1(C)CC(=O)C2=C(C1)N(Cc1ccccc1Cl)C(=O)C2(NC(=O)c1ccccc1)C(F)(F)F (stereo not drawn),-1.52%
7,CCCOc1ccc(Oc2nc(N(C)C)nc(N(C)C)n2)nn1,-7.8%
8,CC(=O)N1C(c2ccccc2)CC(=O)OC1c1ccc2c(c1)OCO2 (stereo not drawn),-1.33%
9,O=C(Cc1ccc(F)cc1)Nc1ccccn1,-4.66%
10,COc1ccc(NC(=O)CN(c2ccc(Cl)cc2Cl)S(=O)(=O)c2ccccc2)cc1OC,-5.92%
11,COc1cccc(C2C3=C(O)CC(C)(C)CC3=Nc3ccccc3N2C(C)=O)c1 (stereo not drawn),2.69%
12,CN(C)c1nc2c(c(=O)n(Cc3ccccc3)c(=O)n2C)n1Cc1ccccc1,0.35%
13,O=[N+]([O-])c1ccccc1S(=O)(=O)NCCO,7.77%
14,CC1C=CCC2C(=O)N(c3ccc(Cl)cc3O)C(=O)C12 (stereo not drawn),-2.78%
15,C#CC(C)(O)C1C=C2C(C)(C)CCCC2(C)n2c(=O)c3ccccc3c(=O)n21 (stereo not drawn),-0.637%
16,Cc1ccc(-n2nc(C)c3c(C)c(CCC(=O)NCCN4CCN(C)CC4)c(C)nc32)cc1C,0.747%
17,CSc1ccc(-c2ncnn2-c2cccc(Cl)c2C)cc1,-5.26%
18,CCOC(=O)c1c(C)c(-c2ccccc2)n(CC(=O)NCCN(C)C)c1C,3.32%
19,O=C1NC(=O)C(=Cc2cccn2-c2ccc(Br)cc2)C(=O)N1,0.208%
20,O=C(c1cnc2ccc(S(=O)(=O)N3CCOCC3)cc2c1O)N1CCN(c2ccccn2)CC1,-1.46%
21,COCCN(CCOC)CC(=O)Nc1cc(C)c2c(=O)oc3ccccc3c2n1,-1.27%
22,Cc1c(Cl)cccc1-n1c(C)cc(/C=C2/C(=N)N3C(=NC2=O)SN=C3S(C)(=O)=O)c1C,-7.21%
23,Cc1nn(-c2ccccc2)c(-n2cccc2)c1C(=O)NCc1cccnc1,1.8%
24,O=C(c1ccc2c(Cl)c3c(nc2c1)CCC3)N1CCN(c2ccccn2)CC1,5.77%
25,COc1ccc(CN(C)C(=O)c2cccc(C(=O)N(C)Cc3ccc(OC)cc3)c2)cc1,-2.5%

row,SMILES,% Inhibition @ 10 uM
1,CC1CCc2cc(F)ccc2N1C(=O)COc1ccccc1F (stereo not drawn),-2.82%
2,COc1ccc2c(C)cc(N3CCN(C/C=C/c4ccccc4)CC3)nc2c1,-11.5%
3,COc1ccc(C2(C(=O)NCc3ccccc3Cl)CCOCC2)cc1OC,4.11% and -1.88%
4,Cc1nn(C(C)C(=O)N2CCC(Cc3ccccc3)CC2)c(=O)c2nn(-c3ccccc3)c(C)c12 (stereo not drawn),-0.128%
5,Cc1nc(O)nc(O)c1S(=O)(=O)N1CCN(C(=O)c2cc(-c3ccc(Cl)cc3)[nH]n2)CC1,2.75%
6,Cc1ccccc1-c1cc(C(=O)N[C@@H](CC(C)C)C(=O)NCC#N)ccc1Cl,17%
7,Oc1nc2cccnc2n1-c1ccccc1,6.15%
8,CC(=O)NC1C(=O)N(C)N=C1c1ccccc1 (stereo not drawn),14.5%
9,COc1cccc(-c2noc(-c3cc4cccc(OC)c4oc3=O)n2)c1OC,6.05%
10,CCOc1ccc2oc(=O)cc(CSc3nc4cccnc4[nH]3)c2c1,6.3%
11,Cc1ccccc1-n1cc2c(c1-c1ccccc1Cl)c(=O)n(C)c(=O)n2C,-3.12%
12,Cc1ccc(NC2=NC(=O)CC(C(=O)Nc3ccc(F)c(Cl)c3)S2)cc1 (stereo not drawn),-10%
13,CC1CCC(C(=O)NC(Cc2ccccc2)C(=O)NCc2cccnc2)CC1 (stereo not drawn),-9.05%
14,CC(C)C[C@H](NC(=O)N1CCC(N2CCCCC2)CC1)C(=O)N[C@@H](CCc1ccccc1)CNS(=O)(=O)c1ccc2ccccc2c1,-3.97%
15,CC(=O)C1=C(O)C(=O)N(CCc2ccccc2)C1c1ccc(C(C)C)cc1 (stereo not drawn),-4.97%
16,O=C1C2C3CCC(C3)C2C(=O)N1c1cccc(Cl)c1Cl (stereo not drawn),-12.7%
17,Cc1nn(Cc2ccccc2Cl)c(C)c1NC(=O)C(F)(F)F,4.98%
18,COc1ccc(-c2cc(C(F)F)n3ncc(C(=O)Nc4cccnc4Cl)c3n2)cc1,-6.79%
19,CC1=C(C#N)C(C(F)(F)F)(C(F)(F)F)NC(c2ccco2)=N1,-7.35%
20,COc1ccccc1N1CCN(C(=O)CN(c2cccc(Cl)c2Cl)S(C)(=O)=O)CC1,-3.65%
21,Cc1ccc(Cl)cc1-n1ncc2c(NCCCOC(C)C)ncnc21,5.23%
22,CCOc1ccc(C2CC(c3cc(Br)ccc3F)n3ncnc3N2)cc1Cl (stereo not drawn),3.32%
23,CCOc1ccccc1CNCCSc1nnnn1-c1ccccc1,0.596%
24,Cc1ccc(-c2ccc(Oc3ccc(C#N)c(C#N)c3)c(C)c2)cc1,-3.16%
25,CCN(CC)C(=O)c1ccccc1NC(=O)CN1C(=O)c2ccccc2C1=O,6.51%

row,SMILES,% Inhibition @ 10 uM
1,COc1c(Br)cc(/C=C2/SC(=O)NC2=O)cc1Br,1.58%
2,CC1CN=C(/C=C(\O)c2ccc(Cl)cc2)C(=O)N1 (stereo not drawn),4.09%
3,Cc1cc(-c2ccccc2)n(-c2nnc(S)n2N)n1,-0.85%
4,COc1ccc(CNC(=O)c2cnn(-c3ccc(F)cc3)c2-n2cccc2)cc1OC,-0.742%
5,CCOc1ccccc1CNc1cccc(Cl)c1C,-2.95%
6,Cc1ccc(-n2nnc3c(=O)n(Cc4cccc(F)c4)cnc32)cc1,1.24%
7,COC1=C(OC)C2(C=CC1=O)CC(C)(C)N=C2SC (stereo not drawn),-5.38%
8,Cc1cccc(N2CCN(Cc3ccccc3[N+](=O)[O-])CC2)c1C,-3.56%
9,Cc1nn(Cc2noc(C(N)=O)n2)c(C)c1Br,-2.28%
10,C=CCn1c(CCNC(=O)c2ccco2)nc2ccccc21,3.62%
11,CCCCNC(=O)c1cc2cc3ccc(OC)cc3nc2o1,1.9%
12,COC(=O)C1=CN(CC2CCCO2)C=C(C(=O)OC)C1c1cccc(OC)c1OC (stereo not drawn),-7.18%
13,CN(C)c1c(Cl)cnn(-c2ccccc2)c1=O,-4.4%
14,Cc1cc(C)c(S(=O)(=O)NCCCO)c(C)c1,4.82%
15,Cc1nn(-c2ccc(C(=O)O)cc2)c(N)c1-c1ccccc1,3.38%
16,Cc1cccc(OCC(=O)N2CCCc3ccccc32)c1,-0.173%
17,Cn1c(=O)c2sccc2n2c(CCCC(=O)NCCc3ccccc3)nnc12,3.47%
18,Cc1ccc(C)c(OCC(=O)Nc2ccccc2C)c1,-1.57%
19,CCCC(=O)Nc1sc2c(c1C#N)CCCCCC2,5.54%
20,CCOC(=O)c1c(NC(=O)c2cc3ccccc3cc2OC)sc(C)c1C,10.5%
21,C/C=C/C(=O)Nc1ccccc1OC,-1.92%
22,COc1ccc2cc(C3CC(c4cccs4)=NN3C(C)=O)c(Cl)nc2c1 (stereo not drawn),-12.3%
23,CCOC(=O)N1CCN(Cc2ccccc2Cl)CC1,-0.0494%
24,CCOC(=O)Cc1c(C)c2ccc(N(CC)CC)cc2oc1=O,-5.48%
25,Cc1nc2c(c(C)c1CCC(=O)NCC1CCN(C3CCCC3)C1)c(=O)n(C)c(=O)n2C (stereo not drawn),-6.91%

row,SMILES,% Inhibition @ 10 uM
1,O=C(O)c1cc(-c2ccc(O)cc2)nc2ccccc12,3.48%
2,COc1ccc2c(C)c(CCC(=O)NCc3ccco3)c(=O)oc2c1,2.54%
3,CCn1cc(C2C(C#N)=C(N)Oc3ccc4ccccc4c32)cn1 (stereo not drawn),4.31%
4,CCn1c(NCc2ccc(C(F)(F)F)cc2)nc2ccccc21,-1.74%
5,Cc1ccc(NC(=O)c2cnn(C)c2C)c(Br)c1,1.86%
6,COc1cc(C2C3=C(O)CC(c4ccccc4)CC3=NC(C)=C2C(=O)Nc2ccccc2F)ccc1O (stereo not drawn),-2.68%
7,O=C(c1ccco1)N1CCN(c2ncnc3c2oc2ccccc23)CC1,-1.72%
8,O=C1c2ccccc2C(=O)N1CCc1nc(S)n[nH]1,11.2%
9,O=C(CSCc1cnn(-c2ccccc2)c1-n1cccc1)NCCc1ccccc1,-2.85%
10,CN(C)c1ccc(C(=O)Nc2ccc(Cl)cn2)cc1,4.76%
11,Cc1ccc(C2=NNC(c3cccc(F)c3)S2)cc1 (stereo not drawn),2%
12,O=C1C2C3C=CC(C2C(=O)N1Cc1cccnc1)C1C(=O)N(Cc2cccnc2)C(=O)C31 (stereo not drawn),-3.19%
13,COc1ccc2c(c1)CCc1c(C(=O)NCc3ccc(Cl)cc3)noc1-2,-7.85%
14,CCc1nnc(NC(=O)c2c(C)nn(-c3ccc(C)cc3)c2-n2cccc2)s1,-3.54%
15,Cc1ccc(Cl)cc1NC(=O)c1c(-c2ccccc2)noc1C,-1.65%
16,COc1cc(CNC(C)(C)CO)cc(Br)c1OCc1ccc(F)cc1,10.5%
17,CCCC(=O)N1CCc2cc(OC)c(OC)cc2C1COc1ccc(F)cc1 (stereo not drawn),-2.84%
18,COC(=O)c1cc(S(=O)(=O)NCc2ccc(OC(C)C)cc2)cn1C,5.56%
19,COc1ccc(CN2CCc3c([nH]c4ccccc34)C2)cc1C,-2%
20,Cc1ccc(C(=O)Sc2nnnn2-c2ccccc2)cc1,29.4%
21,CC(=O)N(CC(C)(C)CC=C(C)C)c1ccccc1,1.34%
22,COc1cc2c(cc1OC)CN(Cc1ccc(Cl)cc1Cl)CC2,-1.98%
23,Cc1cccc(-c2nc(CS(=O)CC(=O)NC3CCCC(C)C3C)c(C)o2)c1 (stereo not drawn),-2.85%
24,COc1ccc2cc[n+](C)cc2c1-c1c(OC)ccc2cc[n+](C)cc12,2.51%

# From publication PMC6919601, “Identification of Plasmodium dipeptidyl aminopeptidase allosteric inhibitors by high throughput screening” (PLoS ONE, 2019)
